Assay results as given in the supplement of paper PMC2702839.
Counter-ions that a name gives are not always drawn. The list shows a part of the results.

What follows are compounds tested on Schistosoma mansoni schistosomula (assay: phenotypic hit in primary schistosomula screen (any phenotype vs DMSO control) (binary (1 = hit, 0 = no phenotype)); higher = active (phenotype induced)). Settings: 1 µM; time (d): 7.

Row | SMILES | phenotypic hit
1 | CC(=O)Nc1ccc(O)cc1 [acetaminophen] | inactive: 0
2 | CC(=O)Oc1c(C)c(C)c2c(c1C)CCC(C)(CCCC(C)CCCC(C)CCCC(C)C)O2 (stereo not drawn) [alpha-tochopheryl acetate] | inactive: 0
3 | O=C(O)c1cc(O)c(=O)c2c(O)c(O)ccc2c1 [7-deshydroxypyrogallin-4-carboxylic acid] | inactive: 0
4 | COC(=O)[C@@H]1OC(=O)C2OC23[C@@]1(C)CCC1[C@]2(C)C(C[C@H](O)[C@]13C)C(C)(C)[C@H](OC(C)=O)C[C@@H]2OC(C)=O (stereo partly drawn) [7beta-hydroxy-7-desacetoxykhivorinic acid, methyl ester] | inactive: 0
5 | C[C@H](C[C@@H](O)[C@@H]1OC1(C)C)[C@@H]1CC[C@]2(C)C3=CC[C@H]4C(C)(C)C(=O)CC[C@]4(C)[C@H]3CC[C@@]12C [niloticin] | inactive: 0
6 | CC(=O)N[C@@H](Cc1ccccc1)C(=O)O [acetylphenylalanine] | inactive: 0
7 | CCOC(=O)[C@H](CCc1ccccc1)N[C@@H](C)C(=O)N1CCC[C@H]1C(=O)O [enalapril maleate] | inactive: 0
8 | Cn1nnnc1SCC1=C(C(=O)O)N2C(=O)[C@@H](NC(=O)[C@H](OC=O)c3ccccc3)[C@H]2SC1 [cefamandole nafate] | inactive: 0
9 | COc1cc(O)c(C)c(O)c1 [2,6-dihydroxy-4-methoxytoluene] | inactive: 0
10 | OCC(O)C(O)C(O)C(O)C(O)CO (centres undefined) [perseitol] | active: 1
11 | C[C@H](CCC(=O)O)[C@H]1CC[C@H]2[C@@H]3CC[C@@H]4CCCC[C@]4(C)[C@H]3CC[C@]12C [ursocholanic acid] | inactive: 0
12 | N=C(N)NC(=O)c1nc(Cl)c(N2CCCCCC2)nc1N [n,n-hexamethyleneamiloride] | inactive: 0
13 | CC1=C(CC(=O)O)c2cc(F)ccc2/C1=C\c1ccc([S+](C)[O-])cc1 (centres undefined) [Sulindac] | inactive: 0
14 | CCOc1ccc(C(=O)c2ccc(O)c(O)c2O)cc1 [2,3,4-trihydroxy-4'-ethoxybenzophenone] | inactive: 0
15 | CN(C)CCCO[C@@H]1[C@H]2OC(C)(C)O[C@H]2O[C@@H]1[C@H](O)CO [amiprilose] | inactive: 0
16 | C[C@]12CC[C@@H]3c4ccc(O)cc4CC[C@H]3[C@@H]1C[C@@H](O)[C@@H]2O [estriol] | inactive: 0
17 | CO[C@H]1C=C[C@@]23c4cc5c(cc4CN(C[C@@H]2O)[C@H]3C1)OCO5 [crinamine] | inactive: 0
18 | CCc1cccc2c3c([nH]c12)C(CC)(CC(=O)O)OCC3 (centres undefined) [etodolac] | inactive: 0
19 | Cc1noc(NS(=O)(=O)c2ccc(N)cc2)c1C [sulfisoxazole] | inactive: 0
20 | CN(C)[C@@H]1C(O)=C(C(N)=O)C(=O)[C@@]2(O)C(O)=C3C(=O)c4c(O)ccc(Cl)c4[C@@H](O)[C@H]3C[C@@H]12 [demeclocycline hydrochloride] | inactive: 0
21 | CCCCCCCCCCCCCCCCCC(=O)OC(CC(=O)O)C[N+](C)(C)C (centres undefined) [stearoylcarnitine chloride] | inactive: 0
22 | NC(N)=O [urea] | inactive: 0

Row | SMILES | phenotypic hit
23 | Nc1nc2ncc(C(=O)O)nc2c(=O)[nH]1 [pterin-6-carboxylic acid] | inactive: 0
24 | Cn1c([N+](=O)[O-])cnc1COC(N)=O [ronidazole] | inactive: 0
25 | COC(=O)[C@@H]1OC(=O)C2OC23[C@@]1(C)CCC1[C@@]2(C)CCC(=O)C(C)(C)C2C[C@@H](OC(C)=O)[C@]13C (some centres undefined) [dihydrogedunic acid, methyl ester] | inactive: 0
26 | N[C@@H](C(=O)N[C@@H]1C(=O)N2C(C(=O)O)=C(Cl)CS[C@H]12)c1ccccc1 [cefaclor] | inactive: 0
27 | CC(Oc1ccccc1)C(=O)N[C@@H]1C(=O)N2[C@@H]1SC(C)(C)[C@@H]2C(=O)O (some centres undefined) [phenethicillin potassium] | inactive: 0
28 | O=C(O)c1cc(O)c2ccc(Cl)cc2n1 [7-Chlorokynurenic acid] | inactive: 0
29 | C[C@@H]1CC[C@@]2(OC1)O[C@H]1C[C@H]3[C@@H]4CC[C@@H]5C[C@@H](O)CC[C@]5(C)[C@H]4CC[C@]3(C)[C@H]1[C@@H]2C [smilagenin] | active: 1
30 | OC[C@H]1O[C@@H](O[C@@H]2[C@@H](CO)OC(O)(CO)[C@H]2O)[C@H](O)[C@@H](O)[C@H]1O (mixture of isomers) [lactulose] | inactive: 0
31 | COC(=O)C[C@H]1C(C)(C)C(=O)[C@H]2CC3=C4CC(OC)O[C@@H](c5ccoc5)[C@@]4(C)CCC3[C@]1(C)C2=O (some centres undefined) [16-deoxomexicanolide 16-methyl ether] | inactive: 0
32 | Cc1cc(=O)c2c(O)c3c(cc2o1)OC(C)(C)CC3 [dihydrospatheliachromene] | inactive: 0
33 | Cc1cc(O)c(C=O)c2c1C(=O)Oc1c(COC(=O)/C=C/C(=O)O)c(O)c(C(=O)O)c(C)c1O2 [fumarprotocetraric acid] | inactive: 0
34 | CN(C)CCOC(=O)COc1ccc(Cl)cc1 [meclofenoxate hydrochloride] | inactive: 0
35 | CC(=O)O[C@@H]1C[C@H]2C(C)(C)CCC(=O)[C@]2(C)[C@H]2CC[C@@]3(C)[C@H](c4ccoc4)OC(=O)[C@H]4O[C@]43[C@@]21C [2,3-dihydroisogedunin] | inactive: 0
36 | O=C(OCc1ccccc1)c1ccccc1 [benzyl benzoate] | active: 1
37 | OC(CCN1CCCCC1)(c1ccccc1)C1CCCCC1 (centres undefined) [Trihexyphenidyl hydrochloride] | inactive: 0
38 | N=C(N)N/N=C/c1c(Cl)cccc1Cl [guanabenz acetate] | inactive: 0
39 | CN(C)CC[C@@H](c1ccc(Cl)cc1)c1ccccn1 [chlorpheniramine (s) maleate] | inactive: 0
40 | CN(CCOc1ccc(CC2SC(=O)NC2=O)cc1)c1ccccn1 (centres undefined) [rosiglitazone] | inactive: 0
41 | Nc1cc(-c2ccncc2)c[nH]c1=O [amrinone] | inactive: 0
42 | CC1(C)CC[C@]2(C(=O)O)[C@H](O)C[C@]3(C)C(=CC[C@@H]4[C@@]5(C)CC[C@H](O)C(C)(C)[C@@H]5CC[C@]43C)[C@H]2C1 [echinocystic acid] | inactive: 0
43 | CC(=O)OC1CCC2(O)CC1(C)CCC1C2CC1(C)C (centres undefined) [senecrassidiol 6-acetate] | inactive: 0
44 | COC(=O)C(N)CS (centres undefined) [mecysteine hydrochloride] | inactive: 0

Row | SMILES | phenotypic hit
45 | CN1CC(=O)NC1=N [creatinine] | inactive: 0
46 | NCCCCNCCCN [spermidine trihydrochloride] | inactive: 0
47 | COC(=O)C[C@H]1C(C)(C)[C@@H](OC(C)=O)[C@]2(OC(C)=O)CC3=C4CC(=O)O[C@@H](c5ccoc5)[C@]4(C)CCC3[C@@]1(C)C2OC(C)=O (some centres undefined) [2-dihydrofissinolide acetate] | inactive: 0
48 | CC(=O)N(O)CCCCCNC(=O)CCC(=O)N(O)CCCCCNC(=O)CCC(=O)N(O)CCCCCN [deferoxamine mesylate] | inactive: 0
49 | C=CC(C)(O)CCC1C(=C)CC(O)C2C(C)(C)CCCC12C (centres undefined) [larixol] | inactive: 0
50 | CC(=O)OC1CC[C@@]2(C)C(CC[C@H]3[C@@H]4CC=C(C(C)=O)[C@@]4(C)C(=O)C[C@@H]32)C1 (some centres undefined) [3-acetoxypregn-16-en-12,20-dione] | inactive: 0
51 | C[C@@H]1[C@H](O)[C@@H](C)/C=C/C=C/C=C/C=C/C=C/C=C/C=C/[C@H](O[C@@H]2O[C@H](C)[C@@H](O)[C@H](N)[C@@H]2O)C[C@@H]2O[C@](O)(C[C@@H](O)C[C@@H](O)[C@H](O)CC[C@@H](O)C[C@@H](O)CC(=O)O[C@H]1C)C[C@H](O)[C@H]2C(=O)O [amphotericin b] | active: 1
52 | CO[C@@]1(NC(=O)CSCC#N)C(=O)N2C(C(=O)O)=C(CSc3nnnn3C)CS[C@@H]21 [cefmetazole sodium] | inactive: 0
53 | CCOC(=O)C(C)(C)Oc1ccc(Cl)cc1 [Clofibrate] | inactive: 0
54 | CN1CCc2cccc3c2[C@H]1Cc1ccc(O)c(O)c1-3 [apomorphine hydrochloride] | inactive: 0
55 | C[C@]12CCC3c4ccc(OC(=O)CCC(=O)O)cc4CCC3C1CCC2=O (some centres undefined) [estrone hemisuccinate] | inactive: 0
56 | CCC(Cc1c(I)cc(I)c(N)c1I)C(=O)O (centres undefined) [iopanic acid] | inactive: 0
57 | C[C@]12CC[C@@H]3c4ccc(O)cc4CC[C@H]3[C@@H]1CC[C@@H]2OC(=O)CCC1CCCC1 [estradiol cypionate] | inactive: 0
58 | O=C1C=C2CC3(O)COc4c(ccc(O)c4O)C3=C2C=C1O (centres undefined) [hematein] | inactive: 0
59 | CN1CCN(C2=Nc3cc(Cl)ccc3Nc3ccccc32)CC1 [Clozapine] | inactive: 0
60 | CC1=CC(=O)c2c(O)c(O)c(O)c3c(O)c4c(c1c23)O[C@H](C)C4(C)C [atrovenetin] | inactive: 0
61 | C=C1C2CC[C@@]3(C)[C@H](c4ccoc4)OC(=O)C[C@]13O[C@H]1CC(O)C(C)(C)C(CC(=O)OC)[C@@]21C (stereo partly drawn) [3alpha-hydroxy-3-deoxyangolensic acid methyl ester] | inactive: 0
62 | COc1c(O)cc2c(-c3ccccc3)cc(=O)oc2c1OC [kuhlmannin] | inactive: 0
63 | N=C1C=CC(=C(c2ccc(N)cc2)c2ccc(N)cc2)C=C1 [pararosaniline pamoate] | active: 1
64 | Cc1cc(=O)n(-c2ccccc2)n1C [antipyrine] | inactive: 0
